# B1: SecA (enzyme)
# chain: not shown
# notes: SecA, the ATPase of the Sec translocase, Escherichia coli; It is described as a homodimer in the complexes; also called E. coli SecA; ecSecA
# Experiments:
# [1] = target: the molecule itself; test: negative-stain electron microscopy, single-particle 3D reconstruction; SecA/proOmpA/SecB complex, 1% uranyl acetate; 24 Å reconstruction from 2,704 particles after multi-model refinement, no symmetry; crystal structures docked into the map
# His6-tagged SecB = target: T1, His6-tagged SecB (Escherichia coli, UniProt P0AG86 1-153); test: negative-stain electron microscopy, single-particle 3D reconstruction; SecA/SecB complex fractions from SEC, 1% uranyl acetate; 18 Å reconstruction, C2 symmetry imposed; crystal structures docked into the map; settings: both partners purified
# T1 construct: SecB chaperone, Escherichia coli; The tag is named explicitly only in Materials and for the SecB/proOmpA assembly; also called SecB tetramer; tetrameric SecB
# T1 sequence: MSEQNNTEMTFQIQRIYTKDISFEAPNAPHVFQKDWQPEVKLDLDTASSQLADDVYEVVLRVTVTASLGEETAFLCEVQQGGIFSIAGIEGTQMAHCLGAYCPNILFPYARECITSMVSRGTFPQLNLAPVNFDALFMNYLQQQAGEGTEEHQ
binder,measurement,setting,value
B1,stoichiometry N,[1],2
same,stoichiometry N,His6-tagged SecB,1 SecA dimer per SecB tetramer

# Source: PMC3029384, “Dimeric SecA Couples the Preprotein Translocation in an Asymmetric Manner” (PLoS ONE, 2011)
